Measurements as given in PubChem BioAssay AID1745845 (National Center for Advancing Translational Sciences (NCATS), 2022).
The whole screen tested about 360,000 compounds, of which about 2,600 (0.72%) were called active. This list was built around the results that the source calls inconclusive (neither active nor inactive); the mix of calls is not that of the screen. Calls come from the whole dose curve; as a rule, active = well fitted inhibition curve with a large enough effect; inconclusive = small, poorly fitted or top-dose-only effect; inactive = no such curve, though single readings can be large or run the other way. Potencies beside an inconclusive call are fits to weak or partial responses and may not hold up.

Test: Primary qHTS for Inhibitors of ATXN expression; note: nearly all actives have a fitted effect of over 55% in size
Conditions: HEK-293 ATXN2-luciferase reporter, luminescence, 24 h; activity change, negative = inhibition: at 57 µM (top of the series)
Procedure, shortened: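 qHTS (up to 57 uM final) was run with 24 h compound exposure of reporter cells at 37 °C. Each well was multiplexed: SteadyGlo luminescence measured ATXN2-luciferase expression after a fluorogenic Gly-Phe-AFC viability readout (25 uM final).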
% is set by controls: 0 for no effect and ±100 for the full control effect; potency is the fitted concentration of half-maximal effect; tags give direction and shape of the fitted curve.

Potency, inconclusive:
COCC(C)NC(=O)CCS(=O)(=O)c1nc(-c2ccc(OC)cc2)cc(C(F)(F)F)n1 (centres undefined) 39.8 µM [inhibitor, single point], COc1cc(C(=O)Nc2nc(-c3ccc(Cl)cc3)c(C)s2)ccc1OCC(=O)Nc1ccc(F)cc1 28.2 µM [inhibitor, single point], Cc1cc(C)c2c(N)c(C(=O)Nc3nccs3)sc2n1 11.2 µM [inhibitor, single point], CCCc1c(-c2cccc(Cl)c2)ncn1CCc1ccccc1OC 12.6 µM [inhibitor, partial curve], Cc1cc(Nc2cccc(Cl)c2)nc2ccc(NC(=O)c3cncc(Br)c3)cc12 14.1 µM [inhibitor, partial curve, poor fit], CCn1cc([N+](=O)[O-])c(C(=O)N2N=C(c3cccc4ccccc34)CC2c2ccccc2O)n1 (centres undefined) 25.1 µM [inhibitor, single point], CCCCC[C@@H](/C=C/C1C(=O)C=C[C@H]1C/C=C\CCCC(=O)O)OC(C)=O (some centres undefined) 39.8 µM [inhibitor, single point], COc1ccc(Oc2ccc(C(F)(F)F)cc2NC(=O)c2ccc(OC)cc2)cc1 37.7 µM [inhibitor, single point], COc1cc2oc3cc(C#Cc4ccc(N)cc4)ccc3c(=O)c2cc1OC 8.91 µM [inhibitor, partial curve], COc1ccc(Cl)cc1-c1cc(C(=O)NCc2cccc(C(F)(F)F)c2)[nH]n1 20 µM [inhibitor, single point], O=C(Cn1c2ccccc2c(=O)c2ccccc21)N/N=C/c1cc([N+](=O)[O-])ccc1N1CCCCCC1 22.4 µM [inhibitor, single point], COC(=O)c1cc(COc2ccc3c(c2)oc(=O)c2ccccc23)c(C)o1 39.8 µM [inhibitor, single point], O=C(NC1CCCCCC1)C1CCN(c2nc3ccccc3o2)CC1 14.1 µM [inhibitor, partial curve, poor fit], COc1ccc(Cl)cc1C=CC=Nc1ccc(S(N)(=O)=O)cc1 23.8 µM [inhibitor, partial curve, poor fit], O=C(N=Nc1c(O)[nH]c2ccc(Br)cc12)c1ccccc1-n1cccc1 28.2 µM [inhibitor, partial curve, poor fit], Cc1c(C)c2ccc(OCC(=O)Nc3ccccn3)c(C)c2oc1=O 2.82 µM [inhibitor, full curve, poor fit], O=C(OCc1ccc(C(=O)c2ccccc2)cc1)c1cccc(-c2nnc(-c3ccccc3)o2)c1 39.8 µM [inhibitor, partial curve, poor fit], COc1ccc(N2CCN(c3ccc(C(N)=O)cc3[N+](=O)[O-])CC2)cc1 15.8 µM [inhibitor, partial curve, poor fit], COCCn1c(-c2ccc(OC)cc2)cnc1SCC(=O)Nc1ccc(OC)cc1OC 1.41 µM [inhibitor, partial curve, poor fit], C=CC[C@@H](Cc1ccc(F)cc1)C(=O)OC[C@@H]1CCCN1C(=O)[C@H](CC=C)CC(=O)N[C@H](CO)Cc1ccccc1 39.8 µM [inhibitor, single point], COc1ccccc1C1CCN(c2cc(O)ccc2[N+](=O)[O-])CC1 39.8 µM [inhibitor, single point], COC(=O)CSc1nnc(CNc2ccc(F)cc2)o1 39.8 µM [inhibitor, partial curve, poor fit], Cc1ccc(C(C)C)c(OCc2nn(CC(=O)c3ccc(OC(F)F)cc3)c3[n+]2CCCCC3)c1 37.7 µM [inhibitor, single point], CC(C)Oc1ccc(C2CC(=O)N(Nc3ccc([N+](=O)[O-])cc3[N+](=O)[O-])C2=O)cc1 (centres undefined) 1.34 µM [inhibitor, partial curve, poor fit]

Potency, active:
Cc1csc(NC(=O)c2cn3ccccc3n2)n1 3.98 µM, O=C(Nc1nc2ccccc2n1CCN1CCOCC1)c1cccc([N+](=O)[O-])c1 21.7 µM, CC(C)(C)c1ccc(C(=O)NCCOc2ccccc2F)cc1 12.6 µM

Potency, inactive:
COc1ccccc1N1CCN(C(=O)CCCN2C(=O)c3cccc4cccc(c34)C2=O)CC1, CC(=O)c1cnc2nc(SCc3ccc(Cl)cc3)nn2c1C, CC(C)n1cc(CN2CCC(n3nccc3NC(=O)CCCc3ccccc3)CC2)cn1, CCOC(=O)c1cccc(NC(=O)C2CCCN(S(=O)(=O)c3c(C)n[nH]c3C)C2)c1 (centres undefined), CCn1nc(C(=O)OCC(=O)NCC(C)C)c2ccccc2c1=O, COc1ccc(Cl)cc1C(=O)NCCN(C)C, C=CCOc1ccc(C=Nc2ccc(Cl)cc2)c(O)c1, COc1ccc(C)cc1NC(=O)C1CCCN(c2ncnc3onc(C)c23)C1 (centres undefined), O=C(CCNc1n[nH]c(=O)[nH]c1=O)N1CCOCC1, CCOc1ccc(N(CC(=O)NC2CCCCCC2)S(=O)(=O)c2ccccc2)cc1, COC(=O)c1cccc(S(=O)(=O)N(Cc2ccco2)Cc2cc3cc(OC)ccc3[nH]c2=O)c1, COC(=O)c1cccc(NC2=NS(=O)(=O)c3ccccc32)c1, CCC(C)c1ccccc1OCCCCN1CCCC1 (centres undefined), O=c1ccc2cc(S(=O)(=O)Nc3ccc(F)c(Cl)c3)ccc2[nH]1, O=S(=O)(NCc1ccccc1)NCc1ccc(Cl)cc1Cl, c1ccc2c(CCNc3ncnc4nc[nH]c34)c[nH]c2c1

Activity change, negative = inhibition, inconclusive:
CN1c2ccc(C=O)c3c(C=O)ccc(c23)N(C)C1(C)C -86.8% [inhibitor]
